Reference: the RNAGym collection of RNA variant scans (doi:10.1073/pnas.2313332121)
Variants at the floor of the assay are shown more often than the library holds them.

B1: TPR 5TU (parent)
chain: GGAUCUUCUCGAUCUAACAAAAAAGACAAAUCUGCCACAAAGCUUGAGAGCAUCUUCGGAUGCAGAGGCGGCAGCCUUCGGUGGCGCGAUAGCGCCAACGUUCUCAACUAUGACACGCAAAACGCGUGCUCCGUUGAAUGGAGUUUAUCAUG

Variants of: B1
Experiment: polymerase ribozyme fitness, log enrichment relative to wild type (log ratio); higher = more active; in vitro selection for triplet polymerase activity
Outline: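 Libraries of mutants in each subunit of a heterodimeric triplet polymerase ribozyme were generated by PCR and transcribed. In triplicate, each went through one in vitro selection round: annealing with biotinylated primer, partner subunit and triplets; frozen incubation at −7 °C; gel excision of extended constructs; streptavidin-bead capture; RT-PCR. Fitness, taken from Illumina sequencing of input and output libraries, is the logarithm of a genotype's enrichment over wild-type enrichment, averaged across replicates with inverse-variance weights. The logarithm is base 2, and genotypes needed ≥10 input reads and ≥1 read per output to be kept.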

Polymerase ribozyme fitness (log ratio), ≤ -4.2:
GGAUCUUCUCGAUCUAACAAAAAAGACAAAUCUGCCACAAAGGUUGAGAGCAUCUUCGGAUGCAGAGGCGGCGGACUUCAGUGGCGCGAUAGCGCCAACGUUCUUAACUAUGACACGCAAAACGCGUGCUCCGUUGAAUGGACUUUAUCAUG [C43G A73G C75A G80A C105U G143C]
GGAUCUUCUCGAUCUAACAAAAAAGACAAAUCUGCCACAAAGGUUGAGAGCAUCUUCGGAUGCAGAUGCGGCAGCCUUCGGUUGCGCGAUAGGGCCAACGUUUUCAACUAUGACAAGCAAAACGCGUGCUCCGUUGAAUGGAGUUUAUCAUG [C43G G67U G83U C93G C103U C116A]
GGAUCUUCUCGAUCUAACAAAAAAGACAAAUCUGCCACAAAGGUUGAGAGCAUCUUCGGAUGCAGAGGCGGCAGACUUCGGUGGCGCGAUUGCGCUAACGUUCUCAACUAUGACACGGAAAACGCGUGCUCCGUUGAAUGGAGUUUACCAUG [C43G C75A A91U C96U C118G U148C]
GGAUCUUCUCGAUCUAACAAAAAAGACAAAUCUGCCACAAAGGUUGAGAGGAUCUUCGGAUGCAGAGGCGGCAGCCUUCGGUGGCGCGAUAGGGCCAACGUUCUCAACUAUGACACGCAAAACGCGUGCUCCGUUGAAUGGAGUUUAUCAUG [C43G C51G C93G]
GGAUCUUCUCGAUCUAACAAAAAAGACAAAUCUGCCACAAAGGUUGAGAGCAUUUUCGGAUGCAGCGGCGGCAGCCUUCGGUGGCGCGAUAGCACCAACGUUCUCAUCUAUGACACGCAUAACGCGUGCUCCGUUGAAUGGAGUUAAUCAUG [C43G C54U A66C G94A A107U A120U U146A]
GGAUCUUCUCGAUCUAACAAAAAAGACAAAUCUGCCACAAAGAUUGAGAGCAUCGUCGGAUGCAGAGGCGGCAGCCUUCGGUGGCGCGAUAGCUCCAACGUUCUCAACUAUGACACGCAAUACGCGUGCUCCGUUGAAUGGAGUUUAUCAUG [C43A U55G G94U A121U]
GGAUCUUCUCGAUCUAACAAAAAAGACAAAUCUGCCACAAAGGUUGAGAGCAUCUUCGGAUGCAGAGGCGGCAGCCUUCGGUGGCGUGAUAGCGCCAACGUUCUCAACGAUGACACGCAAAACGCGUGCUCCGUUGAAUGGAGUUUAUCAUG [C43G C87U U109G]
GGAUCUUCUCGAUCUAACAAAAAAGACAAAUCUGCCACAAAGGUUGAGAGCAUCUUCGGAUGCAGAGGCGGCAGCCUUCGGUGGCGCGAUAGCGCCAACGUUCUCAAAUAUGACACGCAAAACGCGUGCUCCGUUGAAUGGAGUUUAUCAUG [C43G C108A]
GGAUCUUCUCGAUCUAACAAAAAAGACAAAUCUGCCACAAAGAUUGAGAGCAUCUUCGGAUGCAGAGGCGGCAGCCUUCGGUGGCGCGAUAGCGCCAACGUUCUCAACUAUGACACGCAAAACGCGAGCUCCGUUGAAUGGGGUUUAUCAUG [C43A U127A A142G]
GGAUCUUCUCGAUCUAACAAAAAAGACAAAUCUGCCACAAAGGUUGAGCGCAUCUUCGGAUGCAGAGGCGGCAGCAUUCGGUGACGCGAUAGCGCCAACGUUCUGAACUAUGACACGCAAAACGCGUGCUCCGUUGAAUGGAGUUUAUCAUG [C43G A49C C76A G84A C105G]
GGAUCUUCUCGAUCUAACAAAAAAGACAAAUCUGCCACAAAGGUUGAGAGCAUCUUCGGAUGCAGAGGCGGCAGCCUUCGGUAGCGCGAUAGCGCCAACGUUCUCAACUAUGACACGCAAAACGCGUGCUCCGUUGACUGGAGUUUAUCAUG [C43G G83A A138C]
GGAUCUUCUCGAUCUAACAAAAAAGACAAAUCUGCCACAAAGGUUGAGAGCAUCUUCGGAUGCAGAGGCGGCAGCCUUCUGUGACGCGAUAGAGCCAACGUUCUCAACUAUGACACGCAAAACGCGUGCUCCGCUGAAUGGAGUUUAUCAUG [C43G G80U G84A C93A U134C]
GGAUCUUCUCGAUCUAACAAAAAAGACAAAUCUGCCACAAAGGUUGAGAGCAUGUUCGGAUGCAGAGGCGGCAGCCUUCGGUGGCGCGAUGGCGCCAACGUUCUCAACUAUGACACGCAAAACGCGUGCUCCGUUGAAUGGAGUUUAUCAUG [C43G C54G A91G]
GGAUCUUCUCGAUCUAACAAAAAAGACAAAUCUGCCACAAAGGUUGAGAGCAUCUUCGGAUGCAGAGGCGGCAGCCUUCGGUGGCGCGAUAGCGCAAACGUUCUCAACUAUGACACUCAUAACGCGUGCUCCAUUUAAUGGAGUUUAUCAUG [C43G C96A G117U A120U G133A G136U]
GGAUCUUCUCGAUCUAACAAAAAAGACAAAUCUGCCACAAAGAAUGAGAGCAUCUUCGGAUGCAGAGGCGGCAGCCUUCGGUGGCGCGAUUGCGCCAACGUUCUCAACUAUGACACGCAAAACGCGUGCUCCGUUGAAUGUAGUUUAUCCUG [C43A U44A A91U G141U A150C]
GGAUCUUCUCGAUCUAACAAAAAAGACAAAUCUGCCACAAAGAUUGAGAGCAUCGUCGGAUGCAGAGGCGGCAGCCUUCGGUGUCGCAAUAGCGCCGACGUUCUCAACUAUGACACGCAAAACGCGUGCUCCGAUGAAUGGAGUUUAUUAUG [C43A U55G G84U G88A A97G U134A C149U]
GGAUCUUCUCGAUCUAACAAAAAAGACAAAUCUGCCACAAAGGUUGAGACCAUCUUCGGAUACAGAGGCGGCAGCCUUCGGUGACGCGAUACCGCCAACGUUCUCAACUAUGACACGCAAAACGCGUGCUCCGUUGAAUGGAGUUUAUCAUG [C43G G50C G62A G84A G92C]
GGAUCUUCUCGAUCUAACAAAAAAGACAAAUCUGCCACAAAGGUUGAGAGCAUCUUCGGAUGCAGAGGCGGCAGCCUUCGGUGGCGCGAUAGGGCCAACGUUCUCAACAAUGACACGCAAAACGCGCGCUCCGUUGAACGGAGUUUAUCAUG [C43G C93G U109A U127C U139C]
GGAUCUUCUCGAUCUAACAAAAAAGACAAAUCUGCCACAAAGGUUGAGAGCAUCUUCGGAUGCUGGGGCGGCAGCCUUCGGUGGCGCGAUAGUGCCAACGUUCUGAACGAUGACACGCAAAACGCGUGCUCCGUUGAAUGGAGUUUAUCAUG [C43G A64U A66G C93U C105G U109G]
GGAUCUUCUCGAUCUAACAAAAAAGACAAAUCUGCCACAAAGAUUGAGAGCAUCUUCGGAUGCAGAGGCGGCAGCCUUCGGUGGCGCGAUAGCCUCAACGUUCUCAACUAUGACACGCAAAACGCGUGCUCCCUCGAAUGGAGUUUAUCAUG [C43A G94C C95U G133C U135C]
GGAUCUUCUCGAUCUAACAAAAAAGACAAAUCUGCCACAAAGGUUUAGAGCAUCUUCGGAUGCAGAGGCGGCAGCCUUCUGUGGCGCGAUAGCGCCAACGUUUUCAACUAUGACACGCAAGACGCGUGCUCCGUUGAAUGGAGUUUAUCAUG [C43G G46U G80U C103U A121G]
GGAUCUUCUCGAUCUAACAAAAAAGACAAAUCUGCCACAAAGAUGGAGAGCAUCUUCGGAUGCAGAGGCGGCAGCCUUCGGUGGCGCGAAAGCGCCAACGUGCUCAACUAUGACACGCAAAACGCGUGCUCCGUUGAAUAGAGUUUCUCAUG [C43A U45G U90A U102G G140A A147C]
GGAUCUUCUCGAUCUAACAAAAAAGACAAAUCUGCCACAAAGGUUGAGAGCAUCUUCGGAUGCAGAGGCGGCGGCCUUCGGUGGCGCGAUAGUGCCAACGUUCUCAACUAUGACCCGCAAAACGCGUGCUCCGUUGAAUGGAGUUUAUCAUG [C43G A73G C93U A115C]
GGAUCUUCUCGAUCUAACAAAAAAGACAAAUCUGCCACAAAGAUUGAGAGCAUCUUCGGAAGCAGAGGCGGCAGCCUUCGGUGGCGCGAUAGCGCCAACGUUCUCAACUAUGACACGCAAAACGCGCGCUCUGUUGAAUGGAGUGUAUCAUG [C43A U61A U127C C132U U145G]
GGAUCUUCUCGAUCUAACAAAAAAGACAAAUCUGCCACAAAGGUUGAGAUCAUCUUUGGAUGCAGAGGCGGCAGCCUUCGGUGGCGCGAUAGCGCCAACGUUCUCAACUAUGACACGCAAAACGCGUGCUCCGUUGAAUUGAGUUAAUCAUG [C43G G50U C57U G140U U146A]
GGAUCUUCUCGAUCUAACAAAAAAGACAAAUCUGCCACAAAGAUUGAGAGCAGCUUCGGAUGCUGAGGCGGCAGCCUUCGGUGGCGCGAUAGCGUCAACGUUCUCAACUUUGACACGCAAAACGCGUGCUCCGUUGAAUGGAGUUUAUCCUG [C43A U53G A64U C95U A110U A150C]
GGAUCUUCUCGAUCUAACAAAAAAGACAAAUCUGCCACAAAGAUUGAGAGCAUCUUCGGAUGCAGAGGCGGCAGCCUUCGGUGGCGCGAUAGCCCCAACGUUCUCAACUAUGACACGCAAAACGCGUGCUCCGUUGAAUGGAUUUUAUCAUG [C43A G94C G143U]
GGAUCUUCUCGAUCUAACAAAAAAGACAAAUCUGCCACAAAGGUUGAGAGCAUAAUCGGAUGCAGAGGCGGCGCCCUUCGGUGGCGCGAUAGCGCCAACGUUCUCAACUAUGACACGCAAAACCCGUGCUCCGUUGAAUGGAGUUUAUCAUG [C43G C54A U55A A73G G74C G124C]
GGAUCUUCUCGAUCUAACAAAAAAGACAAAUCUGCCACAAAGGUUGAGAGCAUCUUCGGAUGCAGAGGCGGCAGCCUUCCGUGGCGCGAUAGCGCCAACGUUCUCAACUAUGACACGCAAAACGCGUGCUCCGUGGAAUGGAGUUUAUCAUG [C43G G80C U135G]
GGAUCUUCUCGAUCUAACAAAAAAGACAAAUCUGCCACAAAGGUUGAGAGCAUCUUCGCAUGCAGAGGCGGCAGCCUUCGGUGGCGCGAUAGCGCCAACGUUCCCAACUAUGACACGCAAAACGCGUGCUCCGCUGACUGGAGUUUAUCAUG [C43G G59C U104C U134C A138C]
GGAUCUUCUCGAUCUAACAAAAAAGACAAAUCUGCCACAAAGGUUGAGGGCAUCUUCGGAUGCAGAGUCGGCAGCCUUCGGUGGCCCGAUAGCGCCAACGUUCUUAACUAUGACAUGCAAAACGCGUGCUCCGUUGAAUGGAGUUUAUCAUG [C43G A49G G68U G86C C105U C116U]
GGAUCUUCUCGAUCUAACAAAAAAGACAAAUCUGCCACAAAGAUUGAGAGCAGCUUCGGAUGCAGAGGCGGCAGCCUUCGGUGGCGGGAUAGCGCCAACGUCCUCAACUAUGAGACGCAAAACGCGUGCUCCGUUGAAUGGAGUUUAUCAUG [C43A U53G C87G U102C C114G]
GGAUCUUCUCGAUCUAACAAAAAAGACAAAUCUGCCACAAAGAUUGAGAGCAACUUAGGAUGCAGAGGCGGCAGCCUUCGGUGGCGCGAUAGCGUCAACGUUCUCAACUAUGACACGCAAAACGCGUGCUCCGUUGAAUGGAGUUUAUCAUG [C43A U53A C57A C95U]
GGAUCUUCUCGAUCUAACAAAAAAGACAAAUCUGCCACAAAGAUUGAGAGCAGCUGCGGAUGCAGAGGCGGCAGCCUUCGGUGGCGCGAUAGCGCCUACGUUCUCAACUAUGACACGCAAAACGCGUGCUCCGUUGGAUGGAGUUUAUCAUG [C43A U53G U56G A97U A137G]
GGAUCUUCUCGAUCUAACAAAAAAGACAAAUCUGCCACAAAGAUUGAGAGCAUCUUCGGAUGCAGAGGCGGCAGCCUUCGGUGGCGCGAAAGCGCCAACGUUCUCAACUAUGACACGCAAAACGCGUGCUGCGUUGAAUUGAGUUUAUCAUG [C43A U90A C131G G140U]
GGAUCUUCUCGAUCUAACAAAAAAGACAAAUCUGCCACAAAGGUUGAGAGCAUCUUCGGAUGCAGAGGCGGCAGCCUUCGGUGGGGCGAUAGCGCCAACGUUCUCAACUAUGACACGCAAAACGCGUGCUCCGUUGAAUGGAGUUUAUCAUG [C43G C85G]
GGAUCUUCUCGAUCUAACAAAAAAGACAAAUCUGCCACAAAGGUUGAGAGCAUCUUCGGUUGCAGCGGCGGCAGCCUUCGGUGGCGCGAUAGUGCCAACGUUCUCAACUAUGACACGCAAAAGGCGUGCUCCGUUGAAUCGAGUUUAUCAUG [C43G A60U A66C C93U C123G G140C]
GGAUCUUCUCGAUCUAACAAAAAAGACAAAUCUGCCACAAAGAUUGAGAGCAUCUUCGGAUGCAGAGGCGGCAGCCUUCGGUGGCGCGAUAGCACCAACGUUCUCAACUAUGACACGCAAAACGCGUGCUCUGUUGAAUGGAGUUUAUCAUG [C43A G94A C132U]
